Experimental findings from article PMC4695059 are described below.

The chains behind the UniProt entries cited, without tags or fusion partners.
UniProt Q8IUF8: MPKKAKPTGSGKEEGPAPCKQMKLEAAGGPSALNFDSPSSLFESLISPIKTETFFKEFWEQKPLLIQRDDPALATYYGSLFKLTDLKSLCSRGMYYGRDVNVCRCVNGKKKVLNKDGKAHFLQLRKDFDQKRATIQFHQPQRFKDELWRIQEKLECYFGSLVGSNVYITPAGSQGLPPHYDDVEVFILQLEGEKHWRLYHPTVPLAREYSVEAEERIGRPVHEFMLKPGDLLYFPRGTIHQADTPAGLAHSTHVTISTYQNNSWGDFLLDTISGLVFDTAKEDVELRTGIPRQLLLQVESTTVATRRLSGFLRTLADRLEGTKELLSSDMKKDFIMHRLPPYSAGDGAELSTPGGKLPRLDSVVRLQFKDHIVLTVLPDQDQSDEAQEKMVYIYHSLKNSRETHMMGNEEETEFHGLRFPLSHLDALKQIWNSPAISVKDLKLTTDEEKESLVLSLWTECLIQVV
UniProt Q09028: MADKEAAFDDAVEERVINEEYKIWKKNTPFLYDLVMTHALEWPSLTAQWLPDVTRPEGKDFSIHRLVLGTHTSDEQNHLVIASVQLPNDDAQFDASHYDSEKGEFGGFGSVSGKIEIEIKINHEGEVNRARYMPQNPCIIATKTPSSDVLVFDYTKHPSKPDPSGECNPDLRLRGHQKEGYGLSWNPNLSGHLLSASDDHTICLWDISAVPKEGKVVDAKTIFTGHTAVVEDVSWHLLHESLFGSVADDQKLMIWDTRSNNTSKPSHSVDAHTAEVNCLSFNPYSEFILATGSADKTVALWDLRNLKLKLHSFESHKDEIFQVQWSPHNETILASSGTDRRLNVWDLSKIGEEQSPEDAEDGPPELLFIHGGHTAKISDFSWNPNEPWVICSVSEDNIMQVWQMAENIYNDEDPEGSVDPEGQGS
UniProt P12956: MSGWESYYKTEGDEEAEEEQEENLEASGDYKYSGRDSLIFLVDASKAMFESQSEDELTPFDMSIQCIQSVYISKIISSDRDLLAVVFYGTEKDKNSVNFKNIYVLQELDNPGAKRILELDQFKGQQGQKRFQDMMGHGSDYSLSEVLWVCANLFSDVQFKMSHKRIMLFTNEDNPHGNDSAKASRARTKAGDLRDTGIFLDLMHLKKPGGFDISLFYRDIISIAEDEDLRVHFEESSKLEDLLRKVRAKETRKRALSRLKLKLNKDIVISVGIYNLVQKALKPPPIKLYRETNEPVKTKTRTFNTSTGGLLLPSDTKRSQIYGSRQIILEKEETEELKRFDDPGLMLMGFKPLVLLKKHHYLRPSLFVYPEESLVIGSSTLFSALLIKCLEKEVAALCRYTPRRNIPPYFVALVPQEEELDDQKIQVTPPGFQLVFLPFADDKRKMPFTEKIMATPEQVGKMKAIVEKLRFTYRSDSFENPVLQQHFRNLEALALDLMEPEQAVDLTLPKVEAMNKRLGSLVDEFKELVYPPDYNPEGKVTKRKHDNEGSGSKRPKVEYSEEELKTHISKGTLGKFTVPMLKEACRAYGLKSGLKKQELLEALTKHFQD
UniProt Q9H7E2: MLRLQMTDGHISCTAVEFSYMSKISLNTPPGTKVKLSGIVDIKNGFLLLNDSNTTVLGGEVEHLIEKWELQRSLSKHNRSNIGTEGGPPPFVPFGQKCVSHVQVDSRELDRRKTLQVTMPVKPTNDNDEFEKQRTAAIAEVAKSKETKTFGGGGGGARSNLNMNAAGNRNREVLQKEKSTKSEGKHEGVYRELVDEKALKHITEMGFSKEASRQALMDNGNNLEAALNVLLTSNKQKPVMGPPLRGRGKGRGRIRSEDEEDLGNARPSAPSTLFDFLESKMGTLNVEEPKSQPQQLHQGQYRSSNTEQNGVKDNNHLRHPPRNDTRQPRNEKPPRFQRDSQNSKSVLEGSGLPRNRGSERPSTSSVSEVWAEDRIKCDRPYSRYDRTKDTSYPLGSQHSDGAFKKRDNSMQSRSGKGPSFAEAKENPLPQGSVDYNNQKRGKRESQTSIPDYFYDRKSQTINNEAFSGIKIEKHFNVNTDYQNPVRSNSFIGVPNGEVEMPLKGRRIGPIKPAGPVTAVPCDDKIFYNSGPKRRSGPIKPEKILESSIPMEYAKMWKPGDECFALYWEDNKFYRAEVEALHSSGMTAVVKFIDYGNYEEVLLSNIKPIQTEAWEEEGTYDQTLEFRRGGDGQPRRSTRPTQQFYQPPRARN

Where two headings read alike, the source gives them in different places. No constants are given. Whether binding was seen depends on the method and setting. In cells and extracts the contact can be indirect. Some entries that bind do so weakly or less than the wild type.

Assay in all cases: co-IP; endogenous proteins from A549 and BEAS-2B lysates (400 μg protein, non-denaturing lysis buffer with 1% Nonidet P-40) immunoprecipitated with antibodies against mdig, XRCC6, RbAp48 (RBBP4), CBX8 or TDRD3 on Protein A/G PLUS-Agarose, 4°C overnight; Western blotting
(In general: Immunoblotting shows a protein as a band on a membrane.)

Assay [1] addresses mineral dust-induced gene (mdig) protein (human (endogenous in A549, BEAS-2B, H929)) (UniProt Q8IUF8).
Assay [2] concerns the target retinoblastoma-binding protein 4 (RBBP4) (human (endogenous in A549, BEAS-2B)) (UniProt Q09028).
Assay [3] concerns the target XRCC6 (Ku70) (human (endogenous in A549, BEAS-2B, H929)) (UniProt P12956).
For assay [4], the target named is mineral dust-induced gene (mdig) protein (human (endogenous in A549, BEAS-2B, H929)) (UniProt Q8IUF8). This is another data set of the same source.

As for TDRD3 (from UniProt Q9H7E2 1-651), in assay [1], the binding entry is “binds weakly”.
Regarding “XRCC6 (Ku70) (from UniProt P12956 1-609)”, the binding result is “no binding” in assay [2] and “binds” in assay [1].
Turning to “mineral dust-induced gene (mdig) protein (from UniProt Q8IUF8 1-465)”, the binding entry in assay [2] and in assay [3] was “binds” each time.
As for “retinoblastoma-binding protein 4 (RBBP4) (from UniProt Q09028 1-425)”, the binding entry in assay [1] is reported as “binds”.

B1: CBX8 (protein, UniProt Q9HC52 1-389)
chain: MELSAVGERVFAAEALLKRRIRKGRMEYLVKWKGWSQKYSTWEPEENILDARLLAAFEEREREMELYGPKKRGPKPKTFLLKAQAKAKAKTYEFRSDSARGIRIPYPGRSPQDLASTSRAREGLRNMGLSPPASSTSTSSTCRAEAPRDRDRDRDRDRERDRERERERERERERERERERGTSRVDDKPSSPGDSSKKRGPKPRKELPDPSQRPLGEPSAGLGEYLKGRKLDDTPSGAGKFPAGHSVIQLARRQDSDLVQCGVTSPSSAEATGKLAVDTFPARVIKHRAAFLEAKGQGALDPNGTRVRHGSGPPSSGGGLYRDMGAQGGRPSLIARIPVARILGDPEEESWSPSLTNLEKVVVTDVTSNFLTVTIKESNTDQGFFKEKR
In the case of B1, the binding result in assay [4] is given as “binds”.
